# Measured values published in the supplement of paper PMC8728848.
# Some of the results follow.
# B1: R410P1E11 (Tachypleus tridentatus), TAL2_TACTR (protein)
# chain: MEKGTPPTHDSDNWMGRAKEIGNGGWDQFQFLFFDPNGYLYAVSNDKLYKASPPQSDTDNWIARATEIGSGGWSGFKFLFFHPNGYLYAVRGQRFYKALPPVSNQD
# What was measured:
# Test in all cases: glycan array binding signal (z-score within array); higher = stronger binding
# Conditions in all cases: glycan notation: IUPAC condensed, linker removed
# GlcNAc(b1-6)GalNAc = target: GlcNAc(b1-6)GalNAc
# Outline: (§1)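 Arrays were curated from the Consortium for Functional Glycomics database, 3228 in total, and kept only where the protein sequence was available. Binding is expressed as a within-array Z-score. This score was averaged across arrays of the same protein sequence at different concentrations or buffers and across linkers, and negative values can be read as non-binding.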
# GlcNAc3Prop(b1-4)GlcNAc = target: GlcNAc3Prop(b1-4)GlcNAc
# Outline: as §1
# Kdn(a2-3)Gal(b1-3)GlcNAc = target: Kdn(a2-3)Gal(b1-3)GlcNAc
# Outline: as §1
# Kdn(a2-3)Gal(b1-4)GlcNAc = target: Kdn(a2-3)Gal(b1-4)GlcNAc
# Outline: as §1
# [1] = target: Man(a1-2)Man(a1-2)Man(a1-3)Man
# Outline: as §1
# [2] = target: Man(a1-2)Man(a1-2)Man(a1-6)[Man(a1-3)]Man
# Outline: as §1
# Man(a1-2)Man(a1-3)Man = target: Man(a1-2)Man(a1-3)Man
# Outline: as §1
# [3] = target: Man(a1-2)Man(a1-3)[Man(a1-2)Man(a1-6)]Man
# Outline: as §1
# [4] = target: Man(a1-2)Man(a1-3)[Man(a1-2)Man(a1-6)]Man(a1-6)[Man(a1-2)Man(a1-2)Man(a1-3)]Man
# Outline: as §1
# [5] = target: Man(a1-2)Man(a1-3)[Man(a1-2)Man(a1-6)]Man(a1-6)[Man(a1-2)Man(a1-2)Man(a1-3)]Man(b1-4)GlcNAc(b1-4)GlcNAc
# Outline: as §1
# [6] = target: Man(a1-2)Man(a1-3)[Man(a1-6)]Man(a1-6)[Man(a1-2)Man(a1-3)]Man(b1-4)GlcNAc(b1-4)GlcNAc
# Outline: as §1
# [7] = target: Man(a1-2)Man(a1-6)[Man(a1-3)]Man(a1-6)[Man(a1-2)Man(a1-2)Man(a1-3)]Man
# Outline: as §1
# [8] = target: Man(a1-2)Man(a1-6)[Man(a1-3)]Man(a1-6)[Man(a1-2)Man(a1-2)Man(a1-3)]Man(b1-4)GlcNAc(b1-4)GlcNAc
# Outline: as §1
# Man(a1-3)[Man(a1-6)]Man = target: Man(a1-3)[Man(a1-6)]Man
# Outline: as §1
# [9] = target: Man(a1-3)[Man(a1-6)]Man(a1-6)[Man(a1-2)Man(a1-3)]Man(b1-4)GlcNAc(b1-4)GlcNAc
# Outline: as §1
# [10] = target: Man(a1-3)[Man(a1-6)]Man(a1-6)[Man(a1-3)]Man
# Outline: as §1
# [11] = target: Man(a1-3)[Man(a1-6)]Man(a1-6)[Man(a1-3)]Man(b1-4)GlcNAc(b1-4)GlcNAc
# Outline: as §1
# [12] = target: Man(a1-3)[Man(a1-6)]Man(b1-4)GlcNAc(b1-4)GlcNAc
# Outline: as §1
# Man(a1-6)Man = target: Man(a1-6)Man
# Outline: as §1
# Man(b1-4)GlcNAc = target: Man(b1-4)GlcNAc
# Outline: as §1
# Neu5Ac(a2-3)Gal = target: Neu5Ac(a2-3)Gal
# Outline: as §1
# [13] = target: Neu5Ac(a2-3)Gal(b1-3)GalNAc
# Outline: as §1
# [14] = target: Neu5Ac(a2-3)Gal(b1-3)GalNAc(b1-3)Gal(a1-4)Gal(b1-4)Glc
# Outline: as §1
# [15] = target: Neu5Ac(a2-3)Gal(b1-3)GalNAc(b1-3)Gal(b1-4)GlcNAc
# Outline: as §1
# [16] = target: Neu5Ac(a2-3)Gal(b1-3)GalNAc(b1-4)[Neu5Ac(a2-3)]Gal(b1-4)Glc
# Outline: as §1
# [17] = target: Neu5Ac(a2-3)Gal(b1-3)GalNAc6S
# Outline: as §1
# [18] = target: Neu5Ac(a2-3)Gal(b1-3)GlcNAc
# Outline: as §1
# [19] = target: Neu5Ac(a2-3)Gal(b1-3)GlcNAc(b1-3)Gal(b1-3)GlcNAc
# Outline: as §1
# [20] = target: Neu5Ac(a2-3)Gal(b1-3)GlcNAc6S
# Outline: as §1
# [21] = target: Neu5Ac(a2-3)Gal(b1-3)[Fuc(a1-4)]GlcNAc
# Outline: as §1
# [22] = target: Neu5Ac(a2-3)Gal(b1-3)[Fuc(a1-4)]GlcNAc(b1-3)Gal(b1-4)[Fuc(a1-3)]GlcNAc
# Outline: as §1
# [23] = target: Neu5Ac(a2-3)Gal(b1-3)[Neu5Ac(a2-3)Gal(b1-4)]GlcNAc
# Outline: as §1
# [24] = target: Neu5Ac(a2-3)Gal(b1-3)[Neu5Ac(a2-6)]GalNAc
# Outline: as §1
# Neu5Ac(a2-3)Gal(b1-4)Glc = target: Neu5Ac(a2-3)Gal(b1-4)Glc
# Outline: as §1
# [25] = target: Neu5Ac(a2-3)Gal(b1-4)GlcNAc
# Outline: as §1
# [26] = target: Neu5Ac(a2-3)Gal(b1-4)GlcNAc(b1-2)Man(a1-3)[GlcNAc(b1-2)Man(b1-4)GlcNAc(b1-2)Man(a1-6)]Man(b1-4)GlcNAc(b1-4)GlcNAc
# Outline: as §1
# [27] = target: Neu5Ac(a2-3)Gal(b1-4)GlcNAc(b1-2)Man(a1-3)[Neu5Ac(a2-6)Gal(b1-4)GlcNAc(b1-2)Man(a1-6)]Man(b1-4)GlcNAc(b1-4)GlcNAc
# Outline: as §1
# [28] = target: Neu5Ac(a2-3)Gal(b1-4)GlcNAc(b1-3)Gal(b1-3)GlcNAc
# Outline: as §1
# [29] = target: Neu5Ac(a2-3)Gal(b1-4)GlcNAc(b1-3)Gal(b1-4)GlcNAc
# Outline: as §1
# [30] = target: Neu5Ac(a2-3)Gal(b1-4)GlcNAc(b1-3)Gal(b1-4)GlcNAc(b1-3)Gal(b1-4)GlcNAc
# Outline: as §1
# [31] = target: Neu5Ac(a2-3)Gal(b1-4)GlcNAc(b1-3)Gal(b1-4)[Fuc(a1-3)]GlcNAc
# Outline: as §1
# [32] = target: Neu5Ac(a2-3)Gal(b1-4)GlcNAc(b1-6)[Gal(b1-3)]GalNAc
# Outline: as §1
# [33] = target: Neu5Ac(a2-3)Gal(b1-4)GlcNAc(b1-6)[Neu5Ac(a2-3)Gal(b1-3)]GalNAc
# Outline: as §1
# [34] = target: Neu5Ac(a2-3)Gal(b1-4)GlcNAc6S
# Outline: as §1
binder,measurement,setting,value
B1,glycan array binding signal (z-score),GlcNAc(b1-6)GalNAc,-0.469
same,glycan array binding signal (z-score),GlcNAc3Prop(b1-4)GlcNAc,-0.254
same,glycan array binding signal (z-score),Kdn(a2-3)Gal(b1-3)GlcNAc,-0.101
same,glycan array binding signal (z-score),Kdn(a2-3)Gal(b1-4)GlcNAc,-0.331
same,glycan array binding signal (z-score),[1],0.137
same,glycan array binding signal (z-score),[2],0.196
same,glycan array binding signal (z-score),Man(a1-2)Man(a1-3)Man,-0.568
same,glycan array binding signal (z-score),[3],-0.225
same,glycan array binding signal (z-score),[4],-0.751
same,glycan array binding signal (z-score),[5],0.235
same,glycan array binding signal (z-score),[6],-0.141
same,glycan array binding signal (z-score),[7],0.394
same,glycan array binding signal (z-score),[8],-0.45
same,glycan array binding signal (z-score),Man(a1-3)[Man(a1-6)]Man,-0.45
same,glycan array binding signal (z-score),[9],0.246
same,glycan array binding signal (z-score),[10],-0.242
same,glycan array binding signal (z-score),[11],-0.483
same,glycan array binding signal (z-score),[12],-0.269
same,glycan array binding signal (z-score),Man(a1-6)Man,-0.669
same,glycan array binding signal (z-score),Man(b1-4)GlcNAc,-0.201
same,glycan array binding signal (z-score),Neu5Ac(a2-3)Gal,-0.233
same,glycan array binding signal (z-score),[13],-0.102
same,glycan array binding signal (z-score),[14],-0.045
same,glycan array binding signal (z-score),[15],-0.173
same,glycan array binding signal (z-score),[16],0.408
same,glycan array binding signal (z-score),[17],-0.515
same,glycan array binding signal (z-score),[18],-0.561
same,glycan array binding signal (z-score),[19],0.008
same,glycan array binding signal (z-score),[20],0.536
same,glycan array binding signal (z-score),[21],-0.536
same,glycan array binding signal (z-score),[22],-0.44
same,glycan array binding signal (z-score),[23],-0.077
same,glycan array binding signal (z-score),[24],-0.207
same,glycan array binding signal (z-score),Neu5Ac(a2-3)Gal(b1-4)Glc,0.391
same,glycan array binding signal (z-score),[25],-0.104
same,glycan array binding signal (z-score),[26],0.572
same,glycan array binding signal (z-score),[27],-0.409
same,glycan array binding signal (z-score),[28],-0.502
same,glycan array binding signal (z-score),[29],-0.147
same,glycan array binding signal (z-score),[30],-0.351
same,glycan array binding signal (z-score),[31],-0.143
same,glycan array binding signal (z-score),[32],-0.507
same,glycan array binding signal (z-score),[33],2.6
same,glycan array binding signal (z-score),[34],0.17
